From the supplement of paper PMC4604168 (melanoma cell lines)
The other results are listed elsewhere or left out. Most values come without repeats; read them as rough.

Tests used:
Assay in all cases: cell count relative to DMSO control; melanoma cells; higher = more viable cells
Conditions in all cases: library dose: standard library concentration; 72 h
[1] = test system: G361
[2] = test system: IPC-298
[3] = test system: IST-MEL1
[4] = test system: LB2518-MEL
[5] = test system: LOXIMVI
[6] = test system: MEL-HO
[7] = test system: MZ2-MEL
[8] = test system: MeWo
[9] = test system: RPMI7951
[10] = test system: RVH-421
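Further: cells treated in 1,536-well plates, then fixed and DAPI-stained, with nuclei counted from automated high-throughput microscope images.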

Compound | cell count [1] [%] | cell count [2] [%] | cell count [3] [%] | cell count [4] [%] | cell count [5] [%] | cell count [6] [%] | cell count [7] [%] | cell count [8] [%] | cell count [9] [%] | cell count [10] [%]
N#CC[C@H](C1CCCC1)n1cc(-c2ncnc3[nH]ccc23)cn1 [ruxolitinib] + Cn1c(Nc2ccc(C(F)(F)F)cc2)nc2cc(Oc3ccnc(-c4ncc(C(F)(F)F)[nH]4)c3)ccc21 [CHIR265] (first compound 5 µM, partner dose 0.4 µM) | 35.5 | 35.5 | 88.6 | 32.2 | 65.9 | 63.8 | 62.5 | 74.1 | 55.4 | 39.1
N#CC[C@H](C1CCCC1)n1cc(-c2ncnc3[nH]ccc23)cn1 [ruxolitinib] + CO[C@H]1C[C@@H]2CC[C@@H](C)[C@@](O)(O2)C(=O)C(=O)N2CCCC[C@H]2C(=O)O[C@H]([C@H](C)C[C@@H]2CC[C@@H](OCCO)[C@H](OC)C2)CC(=O)[C@H](C)/C=C(\C)[C@@H](O)[C@@H](OC)C(=O)[C@H](C)C[C@H](C)/C=C/C=C/C=C/1C [everolimus] (first compound 5 µM, partner dose 0.1 µM) | 73 | 74.8 | 76.2 | 87.7 | 83.2 | 62.5 | 76.8 | 68.9 | 57.3 | 79.7
Cc1cc(Nc2cc(N3CCN(C)CC3)nc(Sc3ccc(NC(=O)C4CC4)cc3)n2)n[nH]1 [Tozasertib] + COc1cc(N2CCC(N3CCN(C)CC3)CC2)ccc1Nc1ncc(Cl)c(Nc2ccccc2S(=O)(=O)C(C)C)n1 [NVP-TAE684] (first compound 0.03 µM, partner dose 0.4 µM) | 70.7 | 79 | 93.7 | 81.1 | 93.5 | 70.8 | 52.4 | 67.1 | 62.1 | 91.8
CC[C@]1(O)C[C@H]2CN(CCc3c([nH]c4ccccc34)[C@@](C(=O)OC)(c3cc4c(cc3OC)N(C=O)[C@H]3[C@@](O)(C(=O)OC)[C@H](OC(C)=O)[C@]5(CC)C=CCN6CC[C@]43[C@@H]65)C2)C1 [vincristine] + Cn1c(Nc2ccc(C(F)(F)F)cc2)nc2cc(Oc3ccnc(-c4ncc(C(F)(F)F)[nH]4)c3)ccc21 [CHIR265] (first compound 0.0005 µM, partner dose 0.4 µM) | 29.7 | 51.3 | 70.1 | 35.6 | 68.2 | 59.9 | 49.1 | 68.5 | 24.8 | 33.8
N#CC[C@H](C1CCCC1)n1cc(-c2ncnc3[nH]ccc23)cn1 [ruxolitinib] + CCCCCCCCCCCCCCCCCCOP(=O)([O-])OC1CC[N+](C)(C)CC1 [Perifosine] (first compound 5 µM, partner dose 2 µM) | 82.5 | 95.3 | 100 | 135 | 70.4 | 78.4 | 90.3 | 86.8 | 24.8 | 69.1
CC[C@]1(O)C[C@H]2CN(CCc3c([nH]c4ccccc34)[C@@](C(=O)OC)(c3cc4c(cc3OC)N(C=O)[C@H]3[C@@](O)(C(=O)OC)[C@H](OC(C)=O)[C@]5(CC)C=CCN6CC[C@]43[C@@H]65)C2)C1 [vincristine] + CN1CCN(c2ccc3nc(-c4c(N)c5c(F)cccc5[nH]c4=O)[nH]c3c2)CC1 [Dovitinib] (first compound 0.0005 µM, partner dose 0.5 µM) | 52.8 | 53.4 | 55.4 | 51.8 | 51.6 | 64.1 | 42.4 | 29.2 | 24.1 | 56.5
CC[C@]1(O)C[C@H]2CN(CCc3c([nH]c4ccccc34)[C@@](C(=O)OC)(c3cc4c(cc3OC)N(C=O)[C@H]3[C@@](O)(C(=O)OC)[C@H](OC(C)=O)[C@]5(CC)C=CCN6CC[C@]43[C@@H]65)C2)C1 [vincristine] + C=CCNC1=C2C[C@@H](C)C[C@H](OC)[C@H](O)[C@@H](C)/C=C(\C)[C@H](OC(N)=O)[C@@H](OC)/C=C\C=C(/C)C(=O)NC(=CC1=O)C2=O [Tanespimycin] (first compound 0.0005 µM, partner dose 0.01 µM) | 57.7 | 90.4 | 36.8 | 79.9 | 110 | 66.9 | 91.8 | 77 | 16.9 | 67.1
N#CC[C@H](C1CCCC1)n1cc(-c2ncnc3[nH]ccc23)cn1 [ruxolitinib] + C#Cc1cccc(Nc2ncnc3cc(OCCOC)c(OCCOC)cc23)c1 [erlotinib] (first compound 5 µM, partner dose 4 µM) | 69.4 | 71.7 | 90.8 | 68 | 83.3 | 70.4 | 74.4 | 64.2 | 63.9 | 79.3
Cc1cc(Nc2cc(N3CCN(C)CC3)nc(Sc3ccc(NC(=O)C4CC4)cc3)n2)n[nH]1 [Tozasertib] + C=C(c1ccc(C(=O)O)cc1)c1cc2c(cc1C)C(C)(C)CCC2(C)C [Bexarotene] (first compound 0.03 µM, partner dose 10 µM) | 77.7 | 79.7 | 98.3 | 86.9 | 143 | 89.7 | 69.9 | 76.6 | 65.7 | 105
CC[C@]1(O)C[C@H]2CN(CCc3c([nH]c4ccccc34)[C@@](C(=O)OC)(c3cc4c(cc3OC)N(C=O)[C@H]3[C@@](O)(C(=O)OC)[C@H](OC(C)=O)[C@]5(CC)C=CCN6CC[C@]43[C@@H]65)C2)C1 [vincristine] + Cc1nc(Nc2ncc(C(=O)Nc3c(C)cccc3Cl)s2)cc(N2CCN(CCO)CC2)n1 [dasatanib] (first compound 0.0005 µM, partner dose 0.02 µM) | 82.1 | 94.1 | 58.1 | 73.6 | 23.5 | 68.2 | 59.6 | 68.7 | 31.9 | 63.9
N#CC[C@H](C1CCCC1)n1cc(-c2ncnc3[nH]ccc23)cn1 [ruxolitinib] + COc1cc(Nc2ncc(F)c(Nc3ccc4c(n3)NC(=O)C(C)(C)O4)n2)cc(OC)c1OC [Tamatinib] (first compound 5 µM, partner dose 2 µM) | 73.6 | 79.5 | 69.5 | 63.4 | 30.8 | 62.8 | 48.6 | 70.3 | 17.2 | 46.4
CC[C@]1(O)C[C@H]2CN(CCc3c([nH]c4ccccc34)[C@@](C(=O)OC)(c3cc4c(cc3OC)N(C=O)[C@H]3[C@@](O)(C(=O)OC)[C@H](OC(C)=O)[C@]5(CC)C=CCN6CC[C@]43[C@@H]65)C2)C1 [vincristine] + CC(C)C[C@H](NC(=O)[C@H](Cc1ccccc1)NC(=O)c1cnccn1)B(O)O [Bortezomib] (first compound 0.0005 µM, partner dose 0.005 µM) | 1.92 | 8.54 | 15.8 | 6.86 | 35.1 | 46.8 | 5.29 | 14.7 | 4.83 | 9.69
N#CC[C@H](C1CCCC1)n1cc(-c2ncnc3[nH]ccc23)cn1 [ruxolitinib] + O=C(O)c1ccc(-c2c[nH]c3ncc(-c4ccccc4)cc23)cc1C1CCCC1 [GSK650394] (first compound 5 µM, partner dose 0.8 µM) | 53 | 84.9 | 75.3 | 88.8 | 76.5 | 74.9 | 86.5 | 82.1 | 67.5 | 60.8
N#CC[C@H](C1CCCC1)n1cc(-c2ncnc3[nH]ccc23)cn1 [ruxolitinib] + NCC(=O)Nc1ccc(-n2nc(C(F)(F)F)cc2-c2ccc3c(ccc4ccccc43)c2)cc1 [OSU03012] (first compound 5 µM, partner dose 5 µM) | 59.3 | 47.7 | 71.4 | 68.9 | 69.6 | 68.5 | 78.6 | 68.6 | 37.9 | 39
CC[C@]1(O)C[C@H]2CN(CCc3c([nH]c4ccccc34)[C@@](C(=O)OC)(c3cc4c(cc3OC)N(C=O)[C@H]3[C@@](O)(C(=O)OC)[C@H](OC(C)=O)[C@]5(CC)C=CCN6CC[C@]43[C@@H]65)C2)C1 [vincristine] + O=C(Nc1cccc(Cl)c1)Nc1ncc(CCNc2ncnc3ccsc23)s1 [SNS314] (first compound 0.0005 µM, partner dose 0.004 µM) | 56.8 | 81.9 | 35.8 | 53.9 | 64.1 | 74.7 | 69.5 | 27.4 | 34.2 | 64.1
Cc1cc(Nc2cc(N3CCN(C)CC3)nc(Sc3ccc(NC(=O)C4CC4)cc3)n2)n[nH]1 [Tozasertib] + COc1cc([C@@H]2c3cc4c(cc3[C@@H](O[C@@H]3O[C@@H]5CO[C@@H](C)O[C@H]5[C@H](O)[C@H]3O)[C@H]3COC(=O)[C@H]23)OCO4)cc(OC)c1O [etoposide] (first compound 0.03 µM, partner dose 0.1 µM) | 84.9 | 60.9 | 105 | 70.3 | 70.6 | 85.1 | 43.6 | 63.6 | 80.8 | 67.2
N#CC[C@H](C1CCCC1)n1cc(-c2ncnc3[nH]ccc23)cn1 [ruxolitinib] + O=C(Nc1cccc(Cl)c1)Nc1ncc(CCNc2ncnc3ccsc23)s1 [SNS314] (first compound 5 µM, partner dose 0.004 µM) | 63.3 | 90.9 | 43 | 97.6 | 59.1 | 63.1 | 88.9 | 48.7 | 47 | 67.7
CC[C@]1(O)C[C@H]2CN(CCc3c([nH]c4ccccc34)[C@@](C(=O)OC)(c3cc4c(cc3OC)N(C=O)[C@H]3[C@@](O)(C(=O)OC)[C@H](OC(C)=O)[C@]5(CC)C=CCN6CC[C@]43[C@@H]65)C2)C1 [vincristine] + COc1ccc(Cl)c(Nc2nc3ccccc3nc2NS(=O)(=O)c2cccc(NC(=O)C(C)(C)N)c2)c1 [XL147] (first compound 0.0005 µM, partner dose 4 µM) | 73.2 | 84.9 | 62.1 | 80.7 | 83.6 | 76.1 | 66.6 | 56.7 | 48 | 68
